Results on 9 compounds are retold here after the supplement of paper PMC8512760.

Among the test systems are HCC-1143; HCC-1187; MDA-468; SUM-149.
What all share (experiment): cell viability relative to vehicle (% of vehicle); basal-like triple-negative breast cancer lines; higher = less cytotoxic
What all share (conditions): 10 µM; 72 h

This is one part of the list. Many values rest on one well or one pass, so single values are uncertain.
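Also: stably firefly luciferase-GFP labeled cells in 96-well plates, viability read as luciferase photon flux after d-luciferin addition, treated wells normalized to vehicle wells, single-dose high-throughput screen.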

As to `C.CCN1CC(CCN2CCOCC2)C(c2ccccc2)(c2ccccc2)C1=O.O` (stereo unspecified) [Doxapram HCl], the cell viability in the assay on HCC-1143 came out at 81.2; with HCC-1187, 78.4; in the assay with MDA-468, 94.5; in the assay on SUM-149 it was 108.
In the same order, the values of `CC(C(=O)O)c1ccc2c(c1)Cc1cccnc1O2` (stereo unspecified) [Pranoprofen] are 107, 106, 95.7 and 93.6.
The corresponding values for `CCCC(NC(C)C(=O)N1C(C(=O)O)CC2CCCCC21)C(=O)OCC` (stereo unspecified) [Perindopril] are 75.6, 77.3, 116 and 88.2.
In the same order, the values of `CC(=O)OC1CC2CCC3C(CCC4(C)C3CC([N+]3(C)CCCCC3)C4OC(C)=O)C2(C)CC1N1CCCCC1.[Br-]` (stereo unspecified) [Vecuronium Bromide] are 91.2, 117, 91.8 and 112.
For `COC1C(OC(N)=O)C(O)C(Oc2ccc3c(O)c(NC(=O)c4ccc([O-])c(CC=C(C)C)c4)c(=O)oc3c2C)OC1(C)C.[Na+]` (stereo unspecified) [Novobiocin Sodium], the cell viability with HCC-1143 worked out at 139; with HCC-1187, 106; with MDA-468, 96.9; in the assay on SUM-149 it was 99.6.
In the same order, the values of `Clc1ccccc1C(c1ccccc1)(c1ccccc1)n1ccnc1` [Clotrimazole] are 79.9, 101, 105 and 90.4.
As for `CCCC(C(=O)OCCN(CC)CC)(c1ccccc1)c1ccccc1.Cl` [SKF 525A (hydrochloride)], the cell viability is 72.3 with HCC-1143, 92.5 in the assay on HCC-1187, 102 in the assay on MDA-468 and 84.5 with SUM-149.
In the case of `NC(=O)c1ncn(C2OC(CO)C(O)C2O)c1O` (stereo unspecified) [Mizoribine], the cell viability with HCC-1143 came to 59.7; in the assay with HCC-1187, 70.4; in the assay with MDA-468, 88.3; in the assay with SUM-149, 95.6.
The corresponding values for `COc1ccccc1OCC(O)CN1CCN(CC(=O)Nc2c(C)cccc2C)CC1.Cl.Cl` (stereo unspecified) [Ranolazine 2HCl] are 80.5, 115, 96.5 and 105.
